{"source": "the BET-seq Pho4 binding data (Le et al. 2018)", "note": "Some of the results follow. Values were computed here from the reads of four pooled replicates and scatter widely."}
{"target": "T1, Pho4 (S. cerevisiae) (UniProt P07270)", "T1 sequence": "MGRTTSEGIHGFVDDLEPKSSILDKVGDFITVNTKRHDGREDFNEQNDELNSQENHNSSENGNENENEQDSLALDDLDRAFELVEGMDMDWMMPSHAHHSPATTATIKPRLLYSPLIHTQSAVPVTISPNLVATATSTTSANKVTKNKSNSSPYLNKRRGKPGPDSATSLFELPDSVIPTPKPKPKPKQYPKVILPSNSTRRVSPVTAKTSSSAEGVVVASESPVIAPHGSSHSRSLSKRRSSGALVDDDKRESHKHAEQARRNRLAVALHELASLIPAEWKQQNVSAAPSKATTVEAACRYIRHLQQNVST", "assay": "relative binding free energy (BET-seq); higher = weaker binding", "conditions": "reference: library average", "units": {"relative binding free energy": "kcal/mol"}}
{"sequence": "TGCAGCACGTGTTAGG", "relative binding free energy": -0.02}
{"sequence": "GATGTCACGTGATTGG", "relative binding free energy": 0.28}
{"sequence": "GGCTGCACGTGGATTA", "relative binding free energy": 0.21}
{"sequence": "TGTTTCACGTGGCGTC", "relative binding free energy": 0.22}
{"sequence": "GGGGTCACGTGGTGAG", "relative binding free energy": 0.2}
{"sequence": "TGTTACACGTGCTGAT", "relative binding free energy": 0.04}
{"sequence": "GTGATCACGTGATTTG", "relative binding free energy": 0.3}
{"sequence": "AGGGTCACGTGGTGAT", "relative binding free energy": 0.04}
{"sequence": "TCAGTCACGTGTGAGG", "relative binding free energy": 0.14}
{"sequence": "GTGTCCACGTGTGCGG", "relative binding free energy": -0.03}
{"sequence": "TAAGCCACGTGGTTGA", "relative binding free energy": 0.03}
{"sequence": "CTTGGCACGTGGACTG", "relative binding free energy": -0.09}
{"sequence": "GGGCACACGTGGGATA", "relative binding free energy": -0.03}
{"sequence": "TATGGCACGTGTTTAT", "relative binding free energy": -0.05}
{"sequence": "CTTAGCACGTGAGGAT", "relative binding free energy": 0.24}
{"sequence": "TTCATCACGTGGGTTA", "relative binding free energy": -0.04}
{"sequence": "TCGAGCACGTGGGTGC", "relative binding free energy": -0.14}
{"sequence": "AATTTCACGTGGGTTT", "relative binding free energy": 0.25}
{"sequence": "AGTATCACGTGTGGTG", "relative binding free energy": 0.18}
{"sequence": "AGCGGCACGTGGTTCG", "relative binding free energy": -0.18}
{"sequence": "AAATGCACGTGGCGTT", "relative binding free energy": 0.01}
{"sequence": "TCAGTCACGTGTGGCT", "relative binding free energy": 0.02}
{"sequence": "ATTGGCACGTGGATGC", "relative binding free energy": 0.07}
{"sequence": "TTTTGCACGTGAAATA", "relative binding free energy": 0.51}
{"sequence": "CAAGGCACGTGGCGGG", "relative binding free energy": -0.31}
{"sequence": "AGTGCCACGTGGAGAT", "relative binding free energy": -0.14}
{"sequence": "GTATGCACGTGATTAG", "relative binding free energy": 0.13}
{"sequence": "TTGAGCACGTGTTAGA", "relative binding free energy": -0.08}
{"sequence": "GGAGTCACGTGAAGAT", "relative binding free energy": 0.37}
{"sequence": "GTTGTCACGTGTTTCC", "relative binding free energy": 0.25}
{"sequence": "AGAGTCACGTGGGAAG", "relative binding free energy": 0.14}
{"sequence": "TGGAACACGTGCTAGG", "relative binding free energy": 0.06}
{"sequence": "ATGGGCACGTGGGGCC", "relative binding free energy": -0.3}
{"sequence": "GTACGCACGTGTTTGT", "relative binding free energy": -0.09}
{"sequence": "TTTGTCACGTGGTTGC", "relative binding free energy": 0.12}
{"sequence": "ATCGACACGTGGGAAG", "relative binding free energy": 0.19}
{"sequence": "GGGTTCACGTGCGCCG", "relative binding free energy": 0.27}
{"sequence": "AATAACACGTGGGGAG", "relative binding free energy": -0.18}
{"sequence": "TAGTACACGTGACGGG", "relative binding free energy": 0.24}
{"sequence": "GACTGCACGTGGGATG", "relative binding free energy": -0.11}
{"sequence": "CAATGCACGTGGGTTT", "relative binding free energy": -0.09}
{"sequence": "AGCGTCACGTGGGCAT", "relative binding free energy": -0.1}
{"sequence": "CGTGCCACGTGTATTG", "relative binding free energy": -0.01}
{"sequence": "TTTCGCACGTGATTTA", "relative binding free energy": 0.07}
{"sequence": "TGGTTCACGTGTCAAT", "relative binding free energy": 0.15}
{"sequence": "CTATCCACGTGGGGTT", "relative binding free energy": -0.08}
{"sequence": "ATGACCACGTGTGGTT", "relative binding free energy": 0}
{"sequence": "TTGCTCACGTGTATGT", "relative binding free energy": 0.21}
{"sequence": "ATATGCACGTGAATGG", "relative binding free energy": 0.2}
{"sequence": "AGCGGCACGTGAGGGG", "relative binding free energy": 0.07}
{"sequence": "CAATTCACGTGGTTGT", "relative binding free energy": 0.18}
{"sequence": "ATGGTCACGTGGCCTT", "relative binding free energy": -0.03}
{"sequence": "GCGTGCACGTGATGTG", "relative binding free energy": 0.21}
{"sequence": "GGTTACACGTGGGAAT", "relative binding free energy": 0.06}
{"sequence": "TCTTGCACGTGAGGTA", "relative binding free energy": 0.18}
{"sequence": "CAGGTCACGTGCGAGG", "relative binding free energy": 0.06}
{"sequence": "TCTTGCACGTGTGTTC", "relative binding free energy": -0.02}
{"sequence": "AGGAGCACGTGTATTT", "relative binding free energy": 0.07}
{"sequence": "GAGCTCACGTGTGGAG", "relative binding free energy": 0.24}
{"sequence": "TCGACCACGTGTGGTT", "relative binding free energy": 0.09}
{"sequence": "TCGCGCACGTGGTGTA", "relative binding free energy": -0.26}
{"sequence": "GTCGTCACGTGGGATA", "relative binding free energy": 0.03}
{"sequence": "CAAGTCACGTGGTTTT", "relative binding free energy": -0.09}
